Columns and labels:
[1] = tested on: NOMO-1 cells; test: Combination with DNMT inhibitors, cell proliferation; type: cell-based; conditions: 128 nM formula (I), 256 nM formula (II), 48 hours; for effect with DAC on cell growth: 100 nM DAC; for effect with AZA on cell growth: 1000 nM AZA
Description: (§1) Cell proliferation was measured. […] This experiment was repeated with NB4 cells. […] Synergistic inhibitory effect of FTO inhibitor together with DNMT inhibitor on cell proliferation was observed.

[2] = tested on: NB4 cells; test: Combination with DNMT inhibitors, cell growth; type: cell-based; conditions: 48 hours, 256 nM formula (IIa); for effect with DAC on cell growth: 100 nM DAC; for effect with AZA on cell growth: 1000 nM AZA
Description: as §1
NB4 AML cells were treated with 256 nM compound of formula (IIa), 1000 nM AZA, 100 nM DAC, or their combinations for 48 hours. Effects of compound of formula (IIa), DAC, AZA and combined effects of compound of formula (IIa) with either DAC or AZA on […] AML cell growth was measured (FIG. 9D).

[3] = tested on: PD-L1 and PD-L2 in NOMO-1 AML cells; test: Expression of PD-L1 and PD-L2 upon FTO inhibition; type: cell-based
[4] = tested on: murine FLT3ITD/NPM1mut leukemic cells; test: Colony forming assay; conditions: 10 nM or 50 nM; b415
[5] = Drug toxicity in vivo; conditions: for H&E staining versus control / complete blood count (WBC, RBC, PLT) versus control / whole body weight and weights of organs (heart, liver, spleen, lung, kidney) versus vehicle control: 5 and 20 mg/kg/day, once every other day for 10 days; for overall safety: at least at a dose 4-fold higher than the efficacious dose
[6] = tested on: GBM cells; test: Sensitization of GBM cells to temozolomide
[7] = tested on: MA9.3ITD AML cells; test: Xenograft AML mouse model with MA9.3ITD cells; conditions: mouse, in vivo
[8] = tested on: TKI-resistant KASUMI-1 and MV4-11 AML cell lines; test: TKI resistance in TKI-resistant AML cell lines
[9] = tested on: IDH-mutant AML cells; test: IDH-mutant AML cells from patients resistant to IDH inhibitors
[10] = tested on: primary murine MLL-AF9 (MA9) leukemic cells; test: Colony forming assay; conditions: 10 nM formula (I) + 20 nM DAC; serial colony forming assays

For Cc1c(-c2ccc(-c3ccccc3F)cc2)nc2ccc(F)cc2c1C(=O)O [formula (II)], the “effect with DAC on cell growth” value [1] was “synergistic inhibitory effect on cell growth”, the “effect with AZA on cell growth” value [1] was “synergistic inhibitory effect on cell growth” and the “effect with DAC on cell growth” value [2] was “synergistic inhibitory effect on cell growth”. The “effect with AZA on cell growth” value [2] was “synergistic inhibitory effect on cell growth”, the “PD-L1 and PD-L2 levels” value [3] was “down-regulation of PD-L1 and PD-L2 levels” and the colony forming activity [4] was “dose dependent decreased colony forming activity”. For the same compound, the “H&E staining versus control” value [5] was “no difference between the groups”, the “complete blood count (WBC, RBC, PLT) versus control” value [5] was “did not show significant differences” and the “whole body weight and weights of organs (heart, liver, spleen, lung, kidney) versus vehicle control” value [5] was “No significant difference”. The overall safety [5] was “safe”, the “sensitization to temozolomide (TMZ)” value [6] was “sensitize GBM cells” and the “anti-leukemic effects compared with FB23-2 (survival, spleen weight, engraftment)” value [7] was “much stronger anti-leukemic effects than FB23-2”. For the same compound, the TKI resistance [8] was “overcome TKI resistance”, the “effect with IDH inhibitor” value [9] was “synergistic effect” and the sensitivity to treatment [9] was “sensitive”.
For C(=N\NC1=NCCN1)/c1c2ccccc2c(/C=N/NC2=NCCN2)c2ccccc12 [formula (I)], the “effect with DAC on cell growth” value [1] was “synergistic inhibitory effect on cell growth”, the “effect with AZA on cell growth” value [1] was “synergistic inhibitory effect on cell growth” and the “effect with DAC on cell growth” value [2] was “synergistic inhibitory effect on cell growth”. The “effect with AZA on cell growth” value [2] was “synergistic inhibitory effect on cell growth”, the “PD-L1 and PD-L2 levels” value [3] was “down-regulation of PD-L1 and PD-L2 levels” and the “effect with DAC on colony forming activity” value [10] was “synergistic effect”. For the same compound, the “H&E staining versus control” value [5] was “no difference between the groups”, the “complete blood count (WBC, RBC, PLT) versus control” value [5] was “did not show significant differences” and the “whole body weight and weights of organs (heart, liver, spleen, lung, kidney) versus vehicle control” value [5] was “No significant difference”. The overall safety [5] was “safe”, the “sensitization to temozolomide (TMZ)” value [6] was “sensitize GBM cells” and the TKI resistance [8] was “overcome TKI resistance”. For the same compound, the “effect with IDH inhibitor” value [9] was “synergistic effect” and the sensitivity to treatment [9] was “sensitive”.

— patent US20220370434A1, “METHODS AND COMPOSITIONS FOR TREATING CANCER” (City of Hope, priority 2019, published 2022)
